Assay results as given in paper PMC10359594 (Nucleic Acids Research, 2023).

Biological target: the molecule itself
Experiment: crystal structure

B1: oxidized SAMHD1 catalytic HD domain ([…]) (domain or fragment)
chain: not shown
modifications: disulfide bond between C341 and C350 (oxidized protein)
- stoichiometry N: 2
